# Experimental data: PubChem BioAssay AID504832 (National Center for Advancing Translational Sciences (NCATS), 2011)
# Several values for one entry are separate records, joined by “and”; a condition that tells them apart may be missing. Identical values can stand only once. About 18,000 (5.8%) of roughly 310,000 compounds were called active. The inconclusive results got no clear call from the source; some entries with a clear call stand among them for comparison. Calls follow the shape of the dose curve; as a rule, active = well fitted inhibition curve with a large enough effect; inconclusive = small, poorly fitted or top-dose-only effect, or another doubt; inactive = no such curve, though single readings can be large or run the other way. A potency beside an inconclusive call is a rough fit, not a confirmed value.
# Assay: Primary qHTS for delayed death inhibitors of the malarial parasite plastid, 48 hour incubation
# Settings: P. falciparum luciferase growth in erythrocytes; series mostly up to 28.7 µM; activity change, negative = inhibition: at the top concentration
# Summary of the method: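 Luciferase-expressing parasites in RBCs, 2% Hct / 0.1% parasitemia final; RPMI 1640 + 0.5% Albumax; 37 C, 5% CO2, one generation; luminescence read-out, lower signal = inhibition.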
# % is scaled to controls: 0 for no effect and ±100 for the full control effect; potency is read from the fitted curve at half-maximal effect; tags tell the direction and shape of the fitted curve.
Structure (SMILES),Potency,"activity change, negative = inhibition"
O=C(Nc1ccc(NC(=O)c2cccc([N+](=O)[O-])c2)cc1)c1cccc([N+](=O)[O-])c1,"inconclusive: 2.94 µM [inhibitor, partial curve, poor fit]",–
Cc1cc(C)c(CN2CCC(n3nccc3NC(=O)C3CCCC3)CC2)cc1C,"inconclusive: 13.1 µM [inhibitor, single point]",–
COCCn1nnnc1C(C(C)C)N1CCC(Cc2ccccc2)CC1 (stereo unspecified),"inconclusive: 14.7 µM [inhibitor, single point]",–
Cc1cc(NC(=O)c2ccc(S(=O)(=O)Nc3ccccc3)cc2)no1,"inconclusive: 2.94 µM [inhibitor, partial curve, poor fit]",–
CC1CCN(S(=O)(=O)c2ccc(NC(=O)Cn3nnc(-c4ccccc4)n3)cc2)CC1,"inconclusive: 11.7 µM [inhibitor, partial curve, poor fit]",–
COC(=O)c1c(NC(=O)CN2C(=O)C(=O)N(C(C)C)C2=O)sc(C)c1C,"inconclusive: 16.5 µM [inhibitor, single point]",–
COc1ccc(NC(=S)N/N=C/c2ccc(F)cc2)cc1OC,"inconclusive: 18.5 µM [inhibitor, single point]",–
CC(C)CC(=O)NC(=S)NNC(=O)c1ccc(NC(=O)C2CCCCC2)cc1,"inconclusive: 18.5 µM [inhibitor, single point]",–
Cc1cc(=O)[nH]c(N2CCN(C(c3ccccc3)c3ccccc3)CC2)n1,"inconclusive: 13.1 µM [inhibitor, partial curve]",–
COC(=O)c1c(NC(=O)CN(c2ccc(C)c(C)c2)S(C)(=O)=O)sc2c1CCCC2,"inconclusive: 18.5 µM [inhibitor, single point]",–
CCC1CCCCN1CCCNC(=O)c1ccc2nc(N3CCCCC3)sc2c1 (stereo unspecified),–,inactive: -20.8%
Cc1nc(Cc2nnc(SCC(=O)N3CCN(c4ccc(O)cc4)CC3)o2)cs1,"inconclusive: 11.7 µM [inhibitor, partial curve, poor fit]",–
O=C(NCc1cccs1)Nc1cc(Cl)ccc1Cl,"inconclusive: 16.5 µM [inhibitor, partial curve, poor fit]",–
Cc1ccc(CSc2ccc3nnc(-c4cccnc4)n3n2)cc1,"inconclusive: 13.1 µM [inhibitor, single point]",–
O=C(CSc1nc2ccccc2c(=O)n1-c1ccccc1)N1CCCc2ccccc21,"inconclusive: 10.4 µM [inhibitor, partial curve, poor fit]",–
COc1ccc2cc(/C=N/NC(=O)CSCc3ccc([N+](=O)[O-])cc3)c(Cl)nc2c1,"inconclusive: 18.5 µM [inhibitor, single point]",–
Cc1ccc(Cn2nnc(C(=O)Nc3cc(C)ccc3C)c2N)cc1,"inconclusive: 18.5 µM [inhibitor, single point]",–
Cc1ccccc1Cc1c(C)nc2c(C(=O)NCc3ccc4c(c3)OCO4)cnn2c1C,"inconclusive: 18.5 µM [inhibitor, single point]",–
O=C(CSC1=NCCS1)Nc1ccc(S(=O)(=O)N2CCCCCC2)cc1,"inconclusive: 18.5 µM [inhibitor, single point]",–
CC[C@@]1(c2ccccc2)NC(=O)N(C)C1=O,–,inactive: -18.6%
COC(=O)c1sc(NC(=S)NC(=O)c2ccccc2)nc1C,–,inactive: 59%
COc1cc(C(=O)NC(CCSC)C(=O)OCC(=O)C(C)(C)C)cc(OC)c1OC (stereo unspecified),–,inactive: -1.07%

Structure (SMILES),Potency,"activity change, negative = inhibition"
CCC(=NCC1CCCO1)c1c(O)n(Cc2ccccc2)c(=O)[nH]c1=O (stereo unspecified),–,inactive: -20.2%
CCO[C@H]1OC(C(=O)N2CCN(C)CC2)=C[C@@H](c2ccc3c(c2)OCO3)[C@@H]1CCCO,–,inactive: 8.31%
COc1ccccc1NC(=O)COc1cc(Br)c(CNCCCN2CCOCC2)cc1OC,"inconclusive: 10.4 µM [inhibitor, partial curve, poor fit]",–
Cc1ccc(NC2=Nc3ccccc3N3C2=Nc2c(c(C)nn2-c2ccccc2)C3c2ccc(O)c(O)c2)cc1 (stereo unspecified),"inconclusive: 11.7 µM [inhibitor, partial curve]",–
CN(C)CCCN(C(=O)/C=C/c1cccs1)c1nc2ccc(F)cc2s1,"inconclusive: 13.1 µM [inhibitor, single point]",–
Cc1cccc(C)c1Nc1nnc(SCc2nc3ccccc3s2)s1,–,inactive: 110%
COC(=O)c1[nH]c2c(c1C)C(=O)CC(c1cccs1)C2 (stereo unspecified),–,inactive: -23.3%
COc1cc2cc3c(N)c(C(=O)Nc4sc(C)c(C)c4C#N)sc3nc2cc1OC,"inconclusive: 3.7 µM [inhibitor, partial curve]",–
c1coc(Cn2c(-c3ccco3)nc3ccccc32)c1,–,inactive: 39.2%
Cc1ccc(NC(=S)Nc2ccc(OC(F)F)c(Cl)c2)cc1F,"inconclusive: 7.38 µM [inhibitor, partial curve, poor fit]",–
Cc1nc2ccccc2n1C1CCN(Cc2nnnn2CCc2ccccc2)CC1,active: 13.1 µM,–
Cn1c(SCC(=O)OCC(=O)c2ccccc2)nnc1-c1cccs1,–,inactive: 37.3%
O=C(Nc1ccc(Cc2ccncc2)cc1)c1ccc(Cl)c([N+](=O)[O-])c1,"inconclusive: 16.5 µM [inhibitor, single point]",–
O=C(CN(C(=O)CCC(=O)Nc1nccs1)c1ccc(F)cc1)NCc1ccc(F)cc1,"inconclusive: 18.5 µM [inhibitor, single point]",–
CN(CC(=O)Nc1cccc(F)c1)C(=O)c1ccccc1Sc1ccccc1C#N,–,inactive: -22.5%
COc1ccc(NS(=O)(=O)c2ccc(N3CCOCC3)c(NC(=O)c3cccc(F)c3)c2)cc1,"inconclusive: 18.5 µM [inhibitor, single point]",–
FC(F)(F)c1ccc(CN2C[C@@H]3C(c4ccccc4)C4(c5cccnc5)CC3(C4)[C@H]2c2ccccc2)cc1 (stereo partly specified),active: 2.33 µM,–
CCCc1cc(=O)[nH]c(SCC(=O)NC2CCCc3ccccc32)n1 (stereo unspecified),–,inactive: -1.13%
O=C(COC(=O)/C=C/c1ccc2c(c1)OCO2)Nc1ccccc1,–,inactive: 25%
Nc1c(-c2cccc(Cl)c2)cnc2c(-c3ccccc3)cnn12,–,inactive: 196%
Cc1ccc(/C=N/N2CCN(C3c4ccccc4-c4ccccc43)CC2)o1,"inconclusive: 18.5 µM [inhibitor, single point]",–
CCOC(=O)/C(=C/c1c2ccccc2cc2ccccc12)NC(=O)c1ccccc1,"inconclusive: 13.1 µM [inhibitor, partial curve, poor fit]",–

Structure (SMILES),Potency,"activity change, negative = inhibition"
C#CCNC(=O)C1=C[C@@H](c2csc3ccccc23)C[C@@H](OCc2ccc(CO)cc2)O1,"inconclusive: 0.465 µM [inhibitor, full curve, poor fit]",–
CC1(c2nnc(Cc3ccccc3)o2)CC(c2cccc(F)c2)=NO1 (stereo unspecified),–,inactive: 4.9%
COc1cccc(CC2(CO)CCCN(Cc3cn[nH]c3-c3ccc(F)cc3)C2)c1 (stereo unspecified),"inconclusive: 9.28 µM [inhibitor, partial curve]",–
CCN1CCN(Cc2ccc(NC(=O)c3cc(NC(=O)N4CCNC4=O)cc(OC)c3)cc2C(F)(F)F)CC1,active: 5.22 µM,–
COc1ccc(NC(=O)c2cc(C)n(Cc3cccs3)c2C)cc1,–,inactive: 175%
COC(=O)CN1C(=O)CSc2ncccc21,–,inactive: 19%
Cc1ccc(OCc2nnc(SCC(=O)Nc3ccc4c(c3)OCCO4)n2Cc2ccco2)cc1,"inconclusive: 9.28 µM [inhibitor, partial curve, poor fit]",–
N[C@@H](Cc1cc(I)c(Oc2ccc(O)c(I)c2)c(I)c1)C(=O)O,"inconclusive: 13.5 µM [inhibitor, single point] and inconclusive: 18.5 µM [inhibitor, single point] and inconclusive: 11.7 µM [inhibitor, single point]",–
CCOc1ccc(NC(=S)N(CCCN2CCOCC2)Cc2cn(C)c3ccccc23)cc1,"inconclusive: 10.4 µM [inhibitor, single point]",–
O=C(COc1ccc([N+](=O)[O-])cc1)Nc1cccc(C(=O)Nc2ccccc2C(=O)O)c1,"inconclusive: 2.94 µM [inhibitor, partial curve, poor fit]",–
N#CC1=C(O)C(c2ccccc2)n2c1nc(=O)c1ccccc12 (stereo unspecified),"inconclusive: 11.7 µM [inhibitor, partial curve, poor fit]",–
O=c1c(-c2ccnn2-c2ccc(F)cc2)cnc2n1CCS2,–,inactive: 14.8%
COc1ccc(Cc2nn3c(Cn4nnc5ccccc54)nnc3s2)cc1,"inconclusive: 10.4 µM [inhibitor, single point]",–
Cc1ccccc1COC[C@H](CC(C)C)N1CCN(C(=O)c2cccc(C(F)(F)F)c2)CCC1=O,"inconclusive: 13.1 µM [inhibitor, single point]",–
COC(=O)C1=C(C)N(C)C(C)=C(C(=O)OC)C1c1ccccn1,"inconclusive: 3.7 µM [inhibitor, partial curve, poor fit]",–
Cc1ccccc1COC(=O)c1nn(-c2ccccc2)nc1N,–,inactive: -2.42%
CCCCN(CC)CCNC(=O)C1CCN(S(=O)(=O)c2cccc3nsnc23)CC1,"inconclusive: 0.928 µM [inhibitor, full curve, poor fit]",–
CC(C)c1cc(C(=O)N2CCN(C(c3ccccc3)c3ccccc3)CC2)no1,active: 9.28 µM,–
CC(=O)c1ccccc1NC(=O)Cn1c(=O)cnc2ccccc21,"inconclusive: 13.1 µM [inhibitor, single point]",–
COc1ccccc1N1CCN(C(=O)c2n[nH]c3ccccc23)CC1,"inconclusive: 18.5 µM [inhibitor, partial curve, poor fit]",–
CC(C)=CCC1=C(OCC(=O)O)C(=O)c2ccccc2C1=O,active: 13.1 µM,–
O=C(Nc1ccccc1Br)C(=O)N1CCCC1,–,inactive: 22.8%
